This test has as its target myc-XIAP (from pcDNA3-myc-XIAP) (UniProt P98170). The test can be described thus: anti-myc co-immunoprecipitation from transfected 293 cells, immunoblot. (Immunoblotting shows a protein as a band on a membrane.)

B1: DR5 (wild-type, expressed from pcDNA3) (receptor)
chain: not shown
Regarding B1, the binding result is recorded as “no binding”.
